This is an account of results in publication PMC5892938.

The other results are listed elsewhere or left out. At the low end of the ranking the order means little.

The target in the assay is GST-SBP-SLBP (stem-loop binding protein) (UniProt Q14493). The experiment in a line: targeted RNA Bind-n-Seq.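 Note: DESeq read counts versus GST-SBP nonspecific binding control pulldown.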 The following applies: RBNS binding buffer: 25 mM Tris pH 7.5, 150 mM KCl, 3 mM MgCl2, 0.1% Tween, 0.5 mg/mL BSA, 1 mM DTT; 27 nM protein, 750 pM RNA pool; temperature not stated; high values mean tight binding.
For the sequence “GGUCACGUCUCAAUCAACUCAUUUCCAGGAGUUUGCUCCUGUAUUCUCAACAGCUCGCAGUCAAG”, the binding signal (log2 fold change) was -0.113.
The result for “GGUCACGUCUCAAUCAACUCAAUGUCAGGAGUUUACUCCUGUUUACUCAACAGCUCGCAGUCAAG” reads 0.0858; that for “GGUCACGUCUCAAUCAACUCUUCCUCCAGGGAAAGCCCUGGCUUACUCAACAGCUCGCAGUCAAG”, 0.0152; that for “GGUCACGUCUCAAUCAACUCUUCUUCCAGGGAAAACCCUGGCUUACUCAACAGCUCGCAGUCAAG”, 0.106.
Next, “GGUCACGUCUCAAUCAACUCUCUAGAGGGGGGGAAAACCCCUUUACCCUCCAUUUCAACAGCUCGCAGUCAAG”: 0.192; “GGUCACGUCUCAAUCAACUCAUGUCCAGGAGUUUACUCCUGCAAUCUCAACAGCUCGCAGUCAAG”: 0.371.
On to “GGUCACGUCUCAAUCAACUCAUCCUCAGGAGUUUACUCCUGUUUUUUCAACAGCUCGCAGUCAAG”, for which the binding signal (log2 fold change) was determined as 0.0464.
Next, “GGUCACGUCUCAAUCAACUCUUUCUCCAGGGAAAACCCUGGUUAUGUCAACAGCUCGCAGUCAAG”: -0.205; “GGUCACGUCUCAAUCAACUCUUCUUCCAGGGAAAUCCCUGGCAAUUUCAACAGCUCGCAGUCAAG”: -0.0874.
Next, “GGUCACGUCUCAAUCAACUCCACAGAGGGGGGGAAAACCCCUUUACCCUCAAUAUCAACAGCUCGCAGUCAAG”: 0.0653; “GGUCACGUCUCAAUCAACUCUCUGGAGGGGGGGAAAACCCCUUUACCCUCAUAUUCAACAGCUCGCAGUCAAG”: -0.308; “GGUCACGUCUCAAUCAACUCAUCCUCAGGAGUUUCCUCCUGUUUUUUCAACAGCUCGCAGUCAAG”: -0.0568.
Take “GGUCACGUCUCAAUCAACUCAUUUCCCAGGGAAAACCCUGGCUUACUCAACAGCUCGCAGUCAAG”: the binding signal (log2 fold change) was 0.186.
In the case of “GGUCACGUCUCAAUCAACUCCUAUGAGGGGGGGAAAACCCCUUUACCCUCUACAUCAACAGCUCGCAGUCAAG”, the binding signal (log2 fold change) was -0.0946.
The result for “GGUCACGUCUCAAUCAACUCUUUUUCAGGAGUUUUCUCCUGUUUUCUCAACAGCUCGCAGUCAAG” reads 0.0216.
Regarding “GGUCACGUCUCAAUCAACUCUUCUCCAGGAGUUUUCUCCUGUAUUUUCAACAGCUCGCAGUCAAG”, the binding signal (log2 fold change) was -0.121.
With “GGUCACGUCUCAAUCAACUCAAAAGAGGGGGGGAAAACCCCUUUACCCUCAAUGUCAACAGCUCGCAGUCAAG”, the binding signal (log2 fold change) was found to be 0.272.
Take “GGUCACGUCUCAAUCAACUCAUCAGAGGGGGGGAAAACCCCUUUACCCUCGUAAUCAACAGCUCGCAGUCAAG”: the binding signal (log2 fold change) was -0.488.
The result for “GGUCACGUCUCAAUCAACUCUACUUCCAGGGAAAACCCUGGUAUAUUCAACAGCUCGCAGUCAAG” reads -0.167; that for “GGUCACGUCUCAAUCAACUCAGUCUCCAGGGAAAUCCCUGGCAAAUUCAACAGCUCGCAGUCAAG”, -0.207.
“GGUCACGUCUCAAUCAACUCAACUUCAGGAGUUUUCUCCUGCAAUCUCAACAGCUCGCAGUCAAG”: the binding signal (log2 fold change) was 0.0573.
Turning to “GGUCACGUCUCAAUCAACUCUUCCUCAGGAGUUUUCUCCUGCUAUUUCAACAGCUCGCAGUCAAG”, the binding signal (log2 fold change) amounted to 0.0366.
The result for “GGUCACGUCUCAAUCAACUCUCAAGAGGGGGGGAAAACCCCUUUGCCCUCAUACUCAACAGCUCGCAGUCAAG” reads -0.264; that for “GGUCACGUCUCAAUCAACUCAUUUUCAGGAGUUUGCUCCUGCUAUCUCAACAGCUCGCAGUCAAG”, 0.21.
“GGUCACGUCUCAAUCAACUCAACUCCCAGGGAAAACCCUGGCUUUUUCAACAGCUCGCAGUCAAG”: the binding signal (log2 fold change) was -0.0599.
On to “GGUCACGUCUCAAUCAACUCAACUCCCAGGGAAAGCCCUGGCAUUCUCAACAGCUCGCAGUCAAG”, for which the binding signal (log2 fold change) is 0.14.
As for “GGUCACGUCUCAAUCAACUCUUCGUCCAGGGAAAUCCCUGGUUUAUUCAACAGCUCGCAGUCAAG”, the binding signal (log2 fold change) was 0.278.
On to “GGUCACGUCUCAAUCAACUCUUUCCCCAGGGAAAUCCCUGGCUUUCUCAACAGCUCGCAGUCAAG”, for which the binding signal (log2 fold change) stood at 0.094.
In the case of “GGUCACGUCUCAAUCAACUCAAUCCCAGGAGUUUCCUCCUGCAAAUUCAACAGCUCGCAGUCAAG”, the binding signal (log2 fold change) is 0.213.
Take “GGUCACGUCUCAAUCAACUCUAUCCCCAGGGAAACCCCUGGUUUACUCAACAGCUCGCAGUCAAG”: the binding signal (log2 fold change) is -0.0937.
The result for “GGUCACGUCUCAAUCAACUCAAUCUCCAGGGAAACCCCUGGUUAAUUCAACAGCUCGCAGUCAAG” reads 0.0884; that for “GGUCACGUCUCAAUCAACUCAAUCUCCAGGGAAAACCCUGGCUAAUUCAACAGCUCGCAGUCAAG”, -0.0351.
Next, “GGUCACGUCUCAAUCAACUCUCCAGAGGGGGGGAAAACCCCUUUACCCUCACCAUCAACAGCUCGCAGUCAAG”: 0.128; “GGUCACGUCUCAAUCAACUCAAUUUCCAGGGAAAACCCUGGUAUACUCAACAGCUCGCAGUCAAG”: -0.0362; “GGUCACGUCUCAAUCAACUCAUCCUCCAGGGAAAGCCCUGGCUUUUUCAACAGCUCGCAGUCAAG”: -0.0957.
Next, “GGUCACGUCUCAAUCAACUCAAUUCCAGGAGUUUUCUCCUGCUUUCUCAACAGCUCGCAGUCAAG”: -0.0441; “GGUCACGUCUCAAUCAACUCUACUUCCAGGGAAAUCCCUGGCAAUCUCAACAGCUCGCAGUCAAG”: 0.0684.
In the case of “GGUCACGUCUCAAUCAACUCUCUCGAGGGGGGGAAAACCCCUUUACCCUCACAAUCAACAGCUCGCAGUCAAG”, the binding signal (log2 fold change) was found to be 0.571.
As for “GGUCACGUCUCAAUCAACUCAAUUCCAGGAGUUUCCUCCUGUUAUCUCAACAGCUCGCAGUCAAG”, the binding signal (log2 fold change) stood at 0.0703.
Next, “GGUCACGUCUCAAUCAACUCAUUCUCAGGAGUUUACUCCUGCAAACUCAACAGCUCGCAGUCAAG”: 0.0566; “GGUCACGUCUCAAUCAACUCUUCUCCCAGGGAAACCCCUGGUUAUGUCAACAGCUCGCAGUCAAG”: 0.241.
The result for “GGUCACGUCUCAAUCAACUCACCCGAGGGGGGGAAAACCCCUUUACCCUCAAUUUCAACAGCUCGCAGUCAAG” reads 0.0398; that for “GGUCACGUCUCAAUCAACUCUACUCCCAGGGAAAACCCUGGCUAUCUCAACAGCUCGCAGUCAAG”, -0.181.
Next, “GGUCACGUCUCAAUCAACUCUUUCCCAGGAGUUUUCUCCUGCAAACUCAACAGCUCGCAGUCAAG”: 0.0249; “GGUCACGUCUCAAUCAACUCAUUUUCCAGGGAAAUCCCUGGCAAUUUCAACAGCUCGCAGUCAAG”: 0.0969.
Consider “GGUCACGUCUCAAUCAACUCUUCCUCAGGAGUUUACUCCUGUAUACUCAACAGCUCGCAGUCAAG”, for which the binding signal (log2 fold change) was -0.135.
For “GGUCACGUCUCAAUCAACUCUUCUCCCAGGGAAAGCCCUGGCUAAUUCAACAGCUCGCAGUCAAG”, the binding signal (log2 fold change) was found to be 0.0612.
Turning to “GGUCACGUCUCAAUCAACUCAACUUCAGGAGUUUGCUCCUGUAUACUCAACAGCUCGCAGUCAAG”, the binding signal (log2 fold change) came to 0.119.
On to “GGUCACGUCUCAAUCAACUCUUCAGAGGGGGGGAAAACCCCUUUACCCUCAAAUUCAACAGCUCGCAGUCAAG”, for which the binding signal (log2 fold change) is -0.195.
Consider “GGUCACGUCUCAAUCAACUCAUCGGCAGGAGUUUACUCCUGGAAUUUCAACAGCUCGCAGUCAAG”, for which the binding signal (log2 fold change) was -0.203.
Next, “GGUCACGUCUCAAUCAACUCUACUUCAGGAGUUUCCUCCUGCUUUUUCAACAGCUCGCAGUCAAG”: 0.0722; “GGUCACGUCUCAAUCAACUCUUCCUCAGGAGUUUUCUCCUGUUAAUUCAACAGCUCGCAGUCAAG”: -0.0612; “GGUCACGUCUCAAUCAACUCAAUCUCCAGGGAAAGCCCUGGUUAAUUCAACAGCUCGCAGUCAAG”: -0.0604.
The result for “GGUCACGUCUCAAUCAACUCAUUAGAGGGGGGGAAAACCCCUUUGCCCUCACAAUCAACAGCUCGCAGUCAAG” reads -0.0117; that for “GGUCACGUCUCAAUCAACUCAAGUCCCAGGGAAAACCCUGGCAAUUUCAACAGCUCGCAGUCAAG”, 0.381.
In the case of “GGUCACGUCUCAAUCAACUCUUUUCCAGGAGUUUACUCCUGUUAUUUCAACAGCUCGCAGUCAAG”, the binding signal (log2 fold change) is -0.104.
Next, “GGUCACGUCUCAAUCAACUCAUCGUCCAGGGAAACCCCUGGUUAUUUCAACAGCUCGCAGUCAAG”: -0.287; “GGUCACGUCUCAAUCAACUCAUUCCCCAGGGAAAGCCCUGGCAUACUCAACAGCUCGCAGUCAAG”: 0.156.
Regarding “GGUCACGUCUCAAUCAACUCUAUUCCAGGAGUUUUCUCCUGCAAUUUCAACAGCUCGCAGUCAAG”, the binding signal (log2 fold change) stood at 0.0122.
The result for “GGUCACGUCUCAAUCAACUCUUUCUCCAGGGAAACCCCUGGCAAUGUCAACAGCUCGCAGUCAAG” reads -0.0458.
“GGUCACGUCUCAAUCAACUCCUCGGAGGGGGGGAAAACCCCUUUACCCUCAAACUCAACAGCUCGCAGUCAAG”: the binding signal (log2 fold change) is -0.321.
With “GGUCACGUCUCAAUCAACUCUAUUCCCAGGGAAAUCCCUGGCUAAUUCAACAGCUCGCAGUCAAG”, the binding signal (log2 fold change) amounted to 0.0909.
With “GGUCACGUCUCAAUCAACUCAAUUCCCAGGGAAAUCCCUGGCUAAUUCAACAGCUCGCAGUCAAG”, the binding signal (log2 fold change) is -0.351.
Next, “GGUCACGUCUCAAUCAACUCAUCUCCCAGGGAAAUCCCUGGUUUAUUCAACAGCUCGCAGUCAAG”: 0.149; “GGUCACGUCUCAAUCAACUCUUCGUCCAGGGAAAUCCCUGGUUUUUUCAACAGCUCGCAGUCAAG”: -0.299; “GGUCACGUCUCAAUCAACUCAAGUCCAGGAGUUUACUCCUGUUAUCUCAACAGCUCGCAGUCAAG”: -0.0977.
The result for “GGUCACGUCUCAAUCAACUCAAUCGAGGGGGGGAAAACCCCUUUACCCUCACCAUCAACAGCUCGCAGUCAAG” reads -0.157; that for “GGUCACGUCUCAAUCAACUCAUUAGAGGGGGGGAAAACCCCUUUGCCCUCAAACUCAACAGCUCGCAGUCAAG”, 0.106; that for “GGUCACGUCUCAAUCAACUCUAUUUCCAGGGAAACCCCUGGCAUUUUCAACAGCUCGCAGUCAAG”, 0.0122.
With “GGUCACGUCUCAAUCAACUCUUUUCCCAGGGAAAUCCCUGGCUAAUUCAACAGCUCGCAGUCAAG”, the binding signal (log2 fold change) was -0.0664.
Next, “GGUCACGUCUCAAUCAACUCUUCUCCCAGGGAAACCCCUGGUUAAUUCAACAGCUCGCAGUCAAG”: -0.132; “GGUCACGUCUCAAUCAACUCUACUUCAGGAGUUUACUCCUGCAUACUCAACAGCUCGCAGUCAAG”: -0.00113.
Next, “GGUCACGUCUCAAUCAACUCCCAAGAGGGGGGGAAAACCCCUUUGCCCUCGUAUUCAACAGCUCGCAGUCAAG”: -0.0627; “GGUCACGUCUCAAUCAACUCAUCCCCAGGAGUUUCCUCCUGCAUAUUCAACAGCUCGCAGUCAAG”: 0.0384.
